The source of these data is PubChem BioAssay AID488969 (Vanderbilt High Throughput Screening Facility, 2010).

Over roughly 110,000 compounds, “z-score” has its median near -0.1; the highest 2% begin near 2. The list shows a part of the results.

The target in this experiment is Metabotropic glutamate receptor 8 (Rattus norvegicus) (UniProt P70579). The experiment can be described thus: mGluR8 Gi/Go-coupled signaling modulation – cell-based, rat, thallium flux, HTS, primary screen (AID 488969). The settings on record: HEK293 rat mGluR8, GIRK (G protein-gated inwardly rectifying potassium channel) thallium flux, FluoZin2; at 10 µM; stronger effect = higher value; submaximal glutamate (EC20) added with thallium.
Sequence of UniProt P70579 (P70579 whole entry, looked up): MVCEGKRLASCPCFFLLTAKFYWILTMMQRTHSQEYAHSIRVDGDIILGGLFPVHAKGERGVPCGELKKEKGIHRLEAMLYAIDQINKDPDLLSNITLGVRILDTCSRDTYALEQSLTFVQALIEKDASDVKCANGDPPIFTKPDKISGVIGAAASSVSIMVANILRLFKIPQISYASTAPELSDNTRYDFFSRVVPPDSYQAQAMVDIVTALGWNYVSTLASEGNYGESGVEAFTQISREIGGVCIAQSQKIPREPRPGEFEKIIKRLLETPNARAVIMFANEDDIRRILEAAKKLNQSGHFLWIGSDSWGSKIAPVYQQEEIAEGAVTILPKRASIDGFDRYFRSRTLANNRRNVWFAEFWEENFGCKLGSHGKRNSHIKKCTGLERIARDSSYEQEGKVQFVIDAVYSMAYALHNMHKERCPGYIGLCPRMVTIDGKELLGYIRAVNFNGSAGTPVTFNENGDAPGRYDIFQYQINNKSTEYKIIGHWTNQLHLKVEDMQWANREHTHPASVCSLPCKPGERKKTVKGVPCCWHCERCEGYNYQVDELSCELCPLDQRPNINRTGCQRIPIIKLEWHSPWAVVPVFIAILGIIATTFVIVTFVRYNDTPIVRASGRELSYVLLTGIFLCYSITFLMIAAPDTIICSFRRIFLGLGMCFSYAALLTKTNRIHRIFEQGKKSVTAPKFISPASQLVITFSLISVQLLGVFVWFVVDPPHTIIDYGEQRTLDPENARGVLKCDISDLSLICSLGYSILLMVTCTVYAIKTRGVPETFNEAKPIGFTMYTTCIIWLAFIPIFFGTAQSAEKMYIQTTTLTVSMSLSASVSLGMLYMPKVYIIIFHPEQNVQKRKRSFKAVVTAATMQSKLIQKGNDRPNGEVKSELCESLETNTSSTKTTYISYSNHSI
Take `CCCCn1nnnc1NCc1ccc(OC)c(OC)c1`: the z-score is -0.0213.

The molecule `Cn1c(C(=O)N2CCN(c3ncccn3)CC2)cc2c(=O)n(C)c3ccccc3c21` came in with a z-score of -0.941. The value for `CC1CCC(NS(=O)(=O)c2ccc3c(c2)n(C)c(=O)c(=O)n3C)CC1` (configuration not stated) was 0.182. Molecule `CC(=O)Nc1nc2cc3c(cc2s1)OCO3` registered a z-score of 0.296.

On to `NC(=O)c1c(-c2ccc(Cl)cc2Cl)csc1NC(=O)Cc1ccccc1`, for which the z-score is -0.416.

For the molecule `CN(c1ccccc1)S(=O)(=O)c1cccc(NC(=O)CSc2nncn2C)c1`, the z-score is -0.203. `CCCc1nnc(NC(=O)CCCN2C(=O)c3ccccc3C2=O)s1`: the z-score amounted to 0.234. The value for `Fc1ccc(-c2nc(-c3cccs3)[nH]c2-c2ccc(F)cc2)cc1` was -0.25.

Consider `Cc1cc(NC(=O)COC(=O)c2ccc(NS(=O)(=O)c3ccc(C)c(C)c3)cc2)no1`, for which the z-score turned out to be 0.115.

Molecule `COc1ccc(/C(N)=N/OC(=O)Cc2ccc(OC)c(OC)c2)cc1` returned a z-score of -0.0928. The result for `COc1cc(NC(=O)COC(=O)/C=C/c2ccccc2Cl)cc(OC)c1` reads -0.092.

As for `O=C(Cc1cccc2ccccc12)NCCC1=CCCCC1`, the z-score stood at 0.134. The result for `O=C(c1ccccc1)c1ccc(N2CCNCC2)cc1` reads 1.29; that for `CCOc1ccc(NC2c3ccccc3C(=O)N2Cc2ccc3c(c2)OCO3)cc1` (configuration not stated), -0.187. The result for `Cn1cnnc1Sc1nc2c(c(=O)n(C)c(=O)n2C)n1C` reads 0.104; that for `CSC(=NC(C)c1ccccc1)NS(=O)(=O)c1cccs1` (configuration not stated), 0.148; that for `O=C(Nc1ccc2oc(-c3cccnc3)nc2c1)c1ccco1`, -0.851. Consider `Cc1ccc(S(=O)(=O)N(C)c2ccc(OCC(=O)OCc3c(C)noc3C)cc2)cc1`, for which the z-score is -0.694.

Molecule `CCOC(=O)Cc1csc(NS(=O)(=O)c2ccccc2)n1` yielded a z-score of -0.205. The value for `COC(=O)c1c(NC(=O)CSc2nnnn2C)sc(C)c1C` was 0.0868; that for `Cc1ccc(CC2CC(=O)N(c3ccc(Cl)cn3)C2=O)cc1` (configuration not stated) was 0.104; that for `CCCCC(=O)Nc1ccc(C(=O)N2CCN(c3ccccc3OC)CC2)cc1` was -2.33.

On to `CCCn1c(SCc2nc(-c3cccs3)no2)nnc1-c1ccncc1`, for which the z-score turned out to be 0.141. The value for `COc1ccc(NC2=C(Cl)C(=O)N(CCc3ccccc3)C2=O)c(OC)c1` was -0.154; that for `O=C(NCC(c1cccnc1)N1CCOCC1)c1ccco1` (configuration not stated) was 0.975. Consider `CSc1nnc(-c2ccccc2N=Cc2c(C)[nH]n(-c3ccccc3)c2=O)c(=O)[nH]1`, for which the z-score is -0.343. For `Cc1nnc(SC(C)C(=O)N2CCc3ccccc32)s1` (configuration not stated), the z-score was -0.392. The value for `CCCCOP(=O)(c1ccc(N(C)C)cc1)C(O)c1cccnc1` (configuration not stated) was 0.0028; that for `CCN(CC)S(=O)(=O)c1cccc(NC(=O)c2cc(=O)[nH]c3ccccc23)c1` was -0.103. The result for `CCn1nnc(NC(=O)c2cccc(-c3cc4ccccc4oc3=O)c2)n1` reads -0.611. Molecule `O=S(=O)(c1ccc(Br)cc1)N1CCn2c(nc3ccccc32)C1` had a z-score of 0.381.

As to `O=C1c2ccccc2C(=O)N1CC1c2ccccc2CCN1S(=O)(=O)c1ccccc1` (configuration not stated), the z-score was -0.152. The result for `COc1ccc(NC(=O)c2oc3ccccc3c2C)c(OC)c1` reads 0.0133. The value for `COc1cc2cc(C(c3nnnn3C(C)(C)C)N3CCC(C)CC3)c(=O)[nH]c2cc1OC` (configuration not stated) was -0.0379; that for `COCCCNC(=O)CCNS(=O)(=O)c1ccc(C)cc1` was 0.264. `COC(=O)c1ccc(Oc2nc(Nc3ccccc3)nc(N(C)C)n2)cc1` showed a z-score of -0.223. The molecule `O=C1Nc2ccc(S(=O)(=O)N3CCCC3C(=O)O)c3cccc1c23` (configuration not stated) had a z-score of -0.291. On to `CC(=O)c1ccc(N(C)C)c2c(N(C)C)cccc12`, for which the z-score is 1.27.

For the molecule `COc1ccc(Cl)cc1NC(=O)COC(=O)/C=C/c1c(C)nn(C2CCS(=O)(=O)C2)c1Cl` (configuration not stated), the z-score was -0.324. The molecule `Cc1ccccc1OCCNC(=O)/C=C/c1ccc([N+](=O)[O-])cc1` registered a z-score of -0.354.

In turn, `Cc1cc(C)n(C2CCCCC2OC(=O)c2ccccc2F)n1` (configuration not stated) had a z-score of -0.148. The result for `O=C(CC1SC(=Nc2ccccc2)N(CCc2ccccn2)C1=O)Nc1ccc(F)cc1` (configuration not stated) reads -0.0441. The value for `COC(=O)c1ccc(NS(=O)(=O)c2ccc3c(c2)oc(=O)n3C)cc1` was -0.233; that for `CCc1ccc(NC(=O)CSc2nnc(CC)c(CC)n2)cc1` was -0.074.

Regarding `COC(=O)C1=C(C)N(CCc2ccc(OC)c(OC)c2)C(=O)/C1=C\N(C)C`, the z-score is -0.171.

As to `O=C(O)CN1C(=O)SC(Nc2ccccc2C(=O)O)C1=O` (configuration not stated), the z-score is -0.0946. The result for `CCOc1ccccc1NC(=S)NC(=O)CCCOc1ccc(Cl)cc1Cl` reads -0.0571; that for `C=C(C)c1cccc(C(C)(C)NC(=O)NCc2ccc(OC)cc2)c1`, -0.252; that for `CCCCN1C2CCCC1CC(NC(=O)C1CCCCC1)C2` (configuration not stated), -0.0601.

In the case of `COc1ccc(-n2c(SCC(=O)N3CCOCC3)nc(O)c(Cc3ccccc3)c2=O)cc1`, the z-score was -0.108. The result for `O=[N+]([O-])c1ccc(Nc2ccccc2)nc1` reads -0.105; that for `C=CCn1c(SCc2csc(C)n2)nc2sc3c(c2c1=O)CCCC3`, 0.143; that for `Cc1nn(CCOc2ccccc2)c(=O)n1-c1cccc(F)c1`, -0.0112.

In turn, `CCN(CC)S(=O)(=O)c1cccc(-c2nnc(SCC(=O)NC3CCCCCCC3)n2N)c1` yielded a z-score of -0.924.

`COc1cc(/C=C/c2ccc3cccc(OC)c3n2)c(OC(C)=O)c([N+](=O)[O-])c1` returned a z-score of -0.561.

Consider `CCn1c(SCC(=O)Nc2ccc(N3CCOCC3)cc2)nnc1-c1ccc(OC)cc1`, for which the z-score is -0.137.

In turn, `Cc1c(Cc2ccccc2)sc(/N=C/c2ccc3ccccc3c2)c1C(N)=O` displayed a z-score of 0.0447. The value for `COc1ccc(Cl)cc1C(=O)CSc1nnnn1C1CCCCC1` was -0.333.

In the case of `CSc1nc2nc(C)cc(-c3ccccc3)n2n1`, the z-score came out at 0.168. The value for `Cc1[nH]nc(N=CC2=C(O)CC(c3ccco3)CC2=O)c1-c1ccc(Cl)cc1` (configuration not stated) was -0.117. The result for `O=C(N/N=C/C1CC2CCC1C2)c1ccc2c(c1)OCO2` (configuration not stated) reads -0.285; that for `CC(C)(C)n1nc2c(c1NC(=O)COc1ccc(Cl)cc1)CSC2`, -0.126; that for `CC(C)(C)c1cc(C(=O)NCC(=O)OCC(=O)c2cccc([N+](=O)[O-])c2)cc(C(C)(C)C)c1`, -0.129.

With `CCNC(=O)NC(=O)C(C)Sc1nc2ccccc2n1CC(C)C` (configuration not stated), the z-score amounted to 0.122. The result for `CC(C)OC(=O)C1=C(N)N2C(=O)CSC2=C(C(=O)OC(C)C)C1` reads -0.11; that for `CN(CC(=O)N1CC=C(c2ccccc2)CC1)S(=O)(=O)c1cnc[nH]1`, 0.164; that for `CCOC(=O)C1CCCN(C(=O)C2CC(=O)N(c3ccc(C)cc3)C2)C1` (configuration not stated), -2.1. The result for `COc1ccc2c(c1)c1ncn(CCc3ccccc3)c(=O)c1n2C` reads 0.684. The value for `CN(C)/C=C1\N=C(c2cccs2)OC1=O` was 0.519. Take `CC(C)n1nnnc1SCC(=O)NCCc1ccccc1`: the z-score was -0.179. The value for `CCc1nc2c(c(=O)c3ccccc3n2C)c(=O)n1C1CCCCCC1` was -2.48; that for `COc1ccccc1C(=O)Nc1ccc(C(=O)N2CCCC2)cc1` was -0.0336. The result for `O=C(CSc1ncccn1)Nc1ccc(S(=O)(=O)N2CCCCC2)cc1` reads -0.0172; that for `CCCCn1c(SCc2nc3ccccc3s2)nc2ccccc2c1=O`, 0.425; that for `COc1cccc(NC(=O)CSc2ccc3nnc(-c4ccncc4)n3n2)c1`, -0.0299.

As to `Cc1ccc(Nc2nc(Cl)nc(N(C)C#N)n2)cc1`, the z-score is -0.567. On to `O=S(=O)(N1CCCCC1)N1CCN(c2ccccc2F)CC1`, for which the z-score was -0.115. The value for `COc1ccc(/C=C/C(=O)N2c3ccccc3Sc3ccc(C(F)(F)F)cc32)cc1` was 0.00546; that for `CNC(=O)COc1ncnc2sc(C)c(C)c12` was 0.311. `Cc1ccc(N2N=C(c3ccc(Br)cc3)CCC2=O)cc1` gave a z-score of -0.188. The result for `Cc1ccc(C(=O)N/N=C\c2ccc[nH]2)cn1` reads -0.399; that for `O=C(Nc1ccc(Cl)c(Cl)c1)Nc1nnc(CC2=CCCCC2)s1`, 0.0021; that for `CCN(CC)S(=O)(=O)c1ccc(Cl)c(OC)c1`, -0.331. The result for `CCOC(=O)Nc1cc(C)ccc1OC` reads 0.0736; that for `CC1=C(C(=O)OC(C)C)C(C2CC=CCC2)NC(=O)N1` (configuration not stated), 0.893. The value for `CCCOC(=O)CC1C(=O)NCCN1Cc1ccc(F)cc1` (configuration not stated) was -0.392; that for `CC(=O)c1c(C)[nH]c2ccccc2c1=O` was 0.0795. The molecule `CC(C)(C)c1ccc(-c2nc3c(C#N)c(-c4ccc5c(c4)OCO5)ccn3n2)cc1` registered a z-score of -0.0444.

`CC(C)NCC(O)COCCOc1ccc(C(C)(C)C)cc1` (configuration not stated) displayed a z-score of 0.0357. The molecule `CCOC(=O)c1ccc2ncc(C(=O)OCC)c(NCCCN3CCOCC3)c2c1` registered a z-score of -0.106. The value for `Cc1cc(Cl)ccc1NC(=S)NCc1ccccc1Cl` was 0.000558. The value for `COc1ccc(S(=O)(=O)NCC(=O)N(CC(=O)NCC2CCCO2)c2cc(C)ccc2C)cc1` (configuration not stated) was 0.673; that for `O=C(O)c1ccnc(Cl)c1` was -0.0797; that for `O=C(O)CCC(=O)NCc1ccc(F)cc1` was 0.241. In turn, `COc1ccc(/C(N)=N/OC(=O)Oc2ccccc2)cc1OC` had a z-score of -0.183. The molecule `N/C(Cc1ccc([N+](=O)[O-])cc1)=N\OC(=O)Cc1ccccc1` registered a z-score of 0.0239. The value for `COc1ccc(S(=O)(=O)N(CC(=O)Nc2ccc(S(=O)(=O)N3CCOCC3)cc2)c2ccccc2)cc1` was -0.235. The result for `NC(=O)Cc1cn(-c2ncc(C(F)(F)F)cc2Cl)c2ccccc12` reads -0.00807; that for `CCOc1cccc2cc(-c3csc(NC(=O)CCC(=O)N4CCC(C)CC4)n3)c(=O)oc12`, 0.0524; that for `Cc1sc(/N=C/c2ccccc2O)c(C#N)c1C`, -0.0929. The result for `COc1ccccc1C(=O)O/N=C(\N)c1ccc(Cl)cc1` reads -0.217; that for `O=C(Oc1ccc2c(c1)O/C(=C\c1ccncc1)C2=O)c1ccccc1`, -0.47. Molecule `Cc1cccc(OCCn2c(=S)[nH]c3ccccc32)c1` came in with a z-score of 2.83.

Molecule `Cn1cnnc1SC(C(=O)Nc1cc(Cl)cc(Cl)c1)c1ccccc1` (configuration not stated) yielded a z-score of 0.103. The result for `CCOC(=O)/C(C#N)=C\c1ccc(CC)s1` reads 0.605. The result for `CCCCNC(=O)C1CCN(C(=O)Nc2ccc(C)cc2)CC1` reads -0.231. The value for `COC(=O)c1ccc2ccn(CC(=O)NC3CCCCC3)c2c1` was 0.45. `Cc1cccc(OCC(=O)NCC(=O)N/N=C/c2cc(Br)ccc2OCc2ccccc2)c1` yielded a z-score of -0.118. The value for `COC(=O)c1ccccc1NC(=O)CSc1n[nH]c(CC(C)C)n1` was 0.556; that for `CCOc1ccc(C(C#N)N2CCOCC2)cc1OC` (configuration not stated) was 0.523. The result for `CC(C)C(NS(=O)(=O)c1ccc2c(c1)oc(=O)n2C)C(=O)N1CCN(c2ccccc2F)CC1` (configuration not stated) reads -0.133; that for `COc1ccc(C(=O)CSc2nnc(C(CO)NC(=O)c3ccc(OC)cc3)n2C)cc1` (configuration not stated), 0.235.
